From patent US20220041727A1 (published 2022)

B1: F023700924 (1PD102C12 (E1D, L11V, A14P, A74S, K83R, I89L)-35GS-F0237611B09 (L11V, A14P, R41P, N43K, A62S, A74S, K83R, V89L)-35GS-ALB11002-A) (bispecific antibody)
chain: DVQLVESGGGVVQPGGSLRLSCAASGSIASIHAMGWFRQAPGKEREFVAVITWSGGITYYADSVKGRFTISRDNSKNTVYLQMNSLRPEDTALYYCAGDKHQSSWYDYWGQGTLVTVSSGGGGSGGGGSGGGGSGGGGSGGGGSGGGGSGGGGSEVQLVESGGGVVQPGGSLRLSCAASGRTFSDYVMGWFRQAPGKEREFVAAISESGGRTHYADSVKGRFTISRDNSKNTLYLQMNSLRPEDTALYYCATTLLWWTSEYAPIKANDYDYWGQGTLVTVSSGGGGSGGGGSGGGGSGGGGSGGGGSGGGGSGGGGS[about 120 residues not spelt out]
notes: Pichia- and CHO-expressed lots tested; also called F023700924-CHO-EXP1; Trimer
B2: F023700931 (1PD102C12 (E1D, L11V, A14P, A74S, K83R, I89L)-35GS-1PD102C12 (L11V, A14P, A74S, K83R, I89L)-35GS-F0237611B09 (L11V, A14P, R41P, N43K, A62S, A74S, … (bispecific antibody)
chain: DVQLVESGGGVVQPGGSLRLSCAASGSIASIHAMGWFRQAPGKEREFVAVITWSGGITYYADSVKGRFTISRDNSKNTVYLQMNSLRPEDTALYYCAGDKHQSSWYDYWGQGTLVTVSSGGGGSGGGGSGGGGSGGGGSGGGGSGGGGSGGGGSEVQLVESGGGVVQPGGSLRLSCAASGSIASIHAMGWFRQAPGKEREFVAVITWSGGITYYADSVKGRFTISRDNSKNTVYLQMNSLRPEDTALYYCAGDKHQSSWYDYWGQGTLVTVSSGGGGSGGGGSGGGGSGGGGSGGGGSGGGGSGGGGSEVQLVESGGGVVQPGGSLRLSCAASGRTFSDYVMGWFRQAPGKEREFVAAISESGGRTHYADSVKGRFTISRDNSKNTLYLQMNSLRPEDTALYYCATTLLWWTSEYAPIKANDYDYWGQGTLVTVSSGGGGSGGGGSGGGGSGGGGSGGGGSGGGGSGGGGSEVQLVESGGGVVQPGGSLRLSCAASGRTFSDYVMGWFRQAPGKEREFVAAISESGGRTHYADSVKGRFTISRDNSKNTLYLQMNSLRPEDTALYYCATTLLWWTSEYAPIKANDYDYWGQGTLVTVSSGGGGSGGGGSGGGGSGGGGSGGGGSGGGGSGGGGS[about 120 residues not spelt out]
notes: Pichia- and CHO-expressed lots tested; also called F023700931-CHO-EXP1; Pentamer
B3: F023700969 (102C12 (E1D, L11V, A14P, A74S, K83R, I89L)-20GS-F0237611B09 (L11V, A14P, R41P, N43K, A62S, A74S, K83R, V89L)-20GS-ALB11002-A) (bispecific antibody)
chain: DVQLVESGGGVVQPGGSLRLSCAASGSIASIHAMGWFRQAPGKEREFVAVITWSGGITYYADSVKGRFTISRDNSKNTVYLQMNSLRPEDTALYYCAGDKHQSSWYDYWGQGTLVTVSSGGGGSGGGGSGGGGSGGGGSEVQLVESGGGVVQPGGSLRLSCAASGRTFSDYVMGWFRQAPGKEREFVAAISESGGRTHYADSVKGRFTISRDNSKNTLYLQMNSLRPEDTALYYCATTLLWWTSEYAPIKANDYDYWGQGTLVTVSSGGGGSGGGGSGGGGSGGGGS[about 120 residues not spelt out]
notes: 20GS-linker version of F023700924
B4: F023700970 (102C12 (E1D, L11V, A14P, A74S, K83R, I89L)-9GS-F0237611B09 (L11V, A14P, R41P, N43K, A62S, A74S, K83R, V89L)-9GS-ALB11002-A) (bispecific antibody)
chain: DVQLVESGGGVVQPGGSLRLSCAASGSIASIHAMGWFRQAPGKEREFVAVITWSGGITYYADSVKGRFTISRDNSKNTVYLQMNSLRPEDTALYYCAGDKHQSSWYDYWGQGTLVTVSSGGGGSGGGSEVQLVESGGGVVQPGGSLRLSCAASGRTFSDYVMGWFRQAPGKEREFVAAISESGGRTHYADSVKGRFTISRDNSKNTLYLQMNSLRPEDTALYYCATTLLWWTSEYAPIKANDYDYWGQGTLVTVSSGGGGSGGGS[about 120 residues not spelt out]
notes: 9GS-linker version of F023700924

How the values were obtained:
human LAG-3-hFc = target: T1, human LAG-3-hFc (human, UniProt P18627 23-450); experiment: flow cytometry, blockade of human LAG-3-hFc binding to Daudi cells
T1 construct: also called human LAG3-Fc; Human LAG-3-Fc; not shown: human Fc (hFc)
T1 sequence: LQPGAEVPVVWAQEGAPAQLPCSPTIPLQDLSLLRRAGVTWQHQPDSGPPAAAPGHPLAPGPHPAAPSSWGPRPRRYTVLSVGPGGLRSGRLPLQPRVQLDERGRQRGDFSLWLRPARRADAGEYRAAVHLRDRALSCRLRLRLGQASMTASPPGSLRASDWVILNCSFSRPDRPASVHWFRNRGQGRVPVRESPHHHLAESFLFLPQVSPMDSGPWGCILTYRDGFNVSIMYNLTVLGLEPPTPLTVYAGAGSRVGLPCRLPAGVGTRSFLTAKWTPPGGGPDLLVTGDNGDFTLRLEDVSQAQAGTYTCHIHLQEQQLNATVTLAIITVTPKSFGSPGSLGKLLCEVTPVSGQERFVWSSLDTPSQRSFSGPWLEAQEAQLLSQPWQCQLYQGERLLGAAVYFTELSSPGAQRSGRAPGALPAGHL
Description: A Nanobody dilution series was prepared in assay buffer: HBSS/2% FBS. Prior to the experiment, Fc receptors on the Daudi cells were blocked with human Fc block (BD Pharmingen, 564220) and 5 μg/mL goat IgG (Jackson ImmunoResearch, 005-000-003) for 30 minutes at 4° C. […] 1×10⁵ cells/well were seeded in V-bottom 96-well plates and resuspended in 100 μL/well of the Nanobody/ligand dilution. After 30 minutes incubation at 4° C., the cells were washed and resuspended in 100 μL/well PE-labeled Goat anti-human IgG (Southern Biotech, 2043-09). Samples were incubated for 15 minutes at 4° C., washed, and resuspended in 100 μL/well of 5 nM TOPRO3 (LifeTechnologies, T3606) solution before analysis on FACS CANTO II (BD).

MSA = target: T2, MSA (UniProt P07724 25-608); experiment: SPR (Biacore T100), albumin immobilised, Nanobody injected
T2 construct: Identity as mouse serum albumin is an inference from the abbreviation
Description: Kinetic analysis of the Nanobodies was performed by SPR technology, using the Biacore T100 instrument (GE Healthcare). […] After immobilization, surfaces were deactivated with 1M ethanolamine/HCl (pH 8.5). The flow rate during the sensor preparation was set on 5 μl/min.
Sensorgram processing and data analysis was performed with Biacore T100 Evaluation Software Version 2.0.4 (GE Healthcare). […] Processed curves were evaluated via fitting with the model ‘Langmuir with Mass Transport’.

[1] = target: T3, LAG3(1-477)-EA expressed in U2OS cells (human, UniProt P18627 23-477); experiment: proximity dimerization assay (beta-galactosidase enzyme fragment complementation) in U2OS cells
T3 construct: Range 1-477 is printed without naming an entry; Expressed in the cell membrane; also called extracellular domain of LAG-3 (1-477) fused to the EA subunit; U2OS.LAG3(1-477)-EA.PD1(1-199)-PK; not shown: enzyme acceptor (EA) beta-galactosidase fragment
T3 sequence: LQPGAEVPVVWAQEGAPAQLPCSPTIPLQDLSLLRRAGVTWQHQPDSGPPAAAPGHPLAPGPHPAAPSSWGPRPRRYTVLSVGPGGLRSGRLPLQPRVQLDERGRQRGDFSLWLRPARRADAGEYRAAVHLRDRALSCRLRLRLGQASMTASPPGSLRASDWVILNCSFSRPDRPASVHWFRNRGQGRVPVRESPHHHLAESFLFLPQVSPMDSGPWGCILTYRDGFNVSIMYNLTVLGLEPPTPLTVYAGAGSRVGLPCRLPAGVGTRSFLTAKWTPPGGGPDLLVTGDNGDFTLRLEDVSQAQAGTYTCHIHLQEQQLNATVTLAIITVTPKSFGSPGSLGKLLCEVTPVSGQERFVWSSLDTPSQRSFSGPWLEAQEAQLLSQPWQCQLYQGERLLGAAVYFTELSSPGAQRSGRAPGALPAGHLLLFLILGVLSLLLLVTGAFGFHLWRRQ

[2] = target: T4, PD1(1-199)-PK expressed in U2OS cells (human, UniProt Q15116 in part); experiment: as above
T4 construct: Range 1-199 is printed without naming an entry; Expressed in the cell membrane; also called extracellular domain of PD-1 (1-199) fused to the PK subunit; U2OS.LAG3(1-477)-EA.PD1(1-199)-PK; not shown: ProLink (PK) beta-galactosidase fragment tag
T4 sequence (Q15116 25-199): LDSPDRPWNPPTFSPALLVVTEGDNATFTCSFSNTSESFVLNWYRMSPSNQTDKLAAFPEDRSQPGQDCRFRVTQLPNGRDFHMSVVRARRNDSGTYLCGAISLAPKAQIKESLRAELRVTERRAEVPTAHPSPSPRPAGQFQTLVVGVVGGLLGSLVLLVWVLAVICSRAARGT

[3] = target: T5, human LAG-3 expressed on cells (human, UniProt P18627 23-525); experiment: flow cytometry on CHO cells over-expressing human LAG-3
T5 construct: also called hLAG-3; 3A9.hLAG-3
T5 sequence: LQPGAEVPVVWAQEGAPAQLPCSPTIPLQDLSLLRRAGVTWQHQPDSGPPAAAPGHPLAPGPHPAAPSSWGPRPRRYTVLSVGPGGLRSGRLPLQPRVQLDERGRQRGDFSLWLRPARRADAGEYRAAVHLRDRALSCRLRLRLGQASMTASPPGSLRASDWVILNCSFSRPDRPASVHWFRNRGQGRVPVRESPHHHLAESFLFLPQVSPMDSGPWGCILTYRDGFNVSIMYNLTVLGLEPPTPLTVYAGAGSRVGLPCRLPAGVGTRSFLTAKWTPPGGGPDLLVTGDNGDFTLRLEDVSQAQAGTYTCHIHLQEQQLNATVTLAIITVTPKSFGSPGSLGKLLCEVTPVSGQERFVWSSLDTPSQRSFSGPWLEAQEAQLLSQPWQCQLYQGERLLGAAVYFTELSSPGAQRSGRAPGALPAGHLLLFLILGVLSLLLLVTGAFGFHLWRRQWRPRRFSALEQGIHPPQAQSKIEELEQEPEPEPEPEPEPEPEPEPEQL

Row | Binder | binding result (human LAG-3-hFc) | koff (MSA) [s⁻¹] | kon (MSA) [M⁻¹ s⁻¹] | binding result [1] | binding result [2] | binding result [3]
1 | B1 | binds | < 0.6 | > 500000 | binds | binds | binds
2 | B2 | binds | < 0.6 | > 500000 |  |  | binds
3 | B3 |  |  |  | binds | binds | 
4 | B4 |  |  |  | binds | binds | 
